For assay [1], the system named is CART19 cells. Kind of assay: In vitro CART19 proliferation assay in co-culture with JeKo-1.
A further assay relates to monocytes. Nature of the assay: Cytokine analysis of monocyte/TP-0903 co-culture supernatant. The settings on record: supernatant at 72 hours, low doses of TP-0903.
Assay [2] concerns CART19 cells. Kind of assay: CART19 helper T cell (Th1/Th2) phenotype by flow cytometry after JeKo-1 co-culture. The conditions noted are these: 10 nM TP-0903, JeKo-1 co-culture, 5 days. In general terms: In flow cytometry, cells or beads pass a laser one at a time.
The test system of the next assay is Axl. The conditions noted are these: B cell malignancies, lower dose levels (Sinha et al. 2015); cited from earlier work.
In a further assay the test system is M2-type macrophages. Kind of assay: M2 macrophage polarization and number in co-culture by flow cytometry.
In a further assay the test system is JeKo-1. Kind of assay: JeKo-1 xenograft NSG mouse relapse model. The format is in vivo, mice. The settings on record: TP-0903 20 mg/kg/day p.o. alone.
The next assay relates to CD19+ JeKo-1 cells. Nature of the assay: TP-0903 cytotoxicity (in vitro killing) assay against JeKo-1. Type of assay: cell-based, human. The settings on record: 65 nM TP-0903, 48 hours, luciferase+ JeKo-1. As for the experimental part:
FIGS. 5A-5D are graphs plotting the results of cytotoxicity assays. […] At 48 hours, cell killing was assessed by luminescence relative to controls. ****p<0.0001, one-way ANOVA. […] CART19 were co-cultured at different effector-to-target ratios (E: T) with luciferase^+ JeKo-1 cells. At 48 hours, cell killing was assessed by luminescence relative to controls. ****p<0.0001, one-way ANOVA. […] At 48 hours, cytotoxicity was determined by flow cytometry. ***p=0.0001, 26 one-way ANOVA. FIG. 5D is a graph plotting CART19 cytotoxicity assay against leukemic B cells derived from CLL patients. CART19 were co-cultured at different E:T ratios with leukemic B cells derived from CLL patients. 48 hours after the co-culture, cytotoxicity was determined by flow 29 cytometry. ****p<0.0001, one-way ANOVA.
In brief, luciferase^+ JeKo-1 (CD19^+) or luciferase+Molm-13 (CD19^−) cells were used as target cells. CART19 cells were co-cultured with target cells at the indicated effector: target (E:T) ratios in TCM. […] Each assay also included control UTDs generated from the same donor and expanded under the same conditions, and a negative control target cell line. Killing was calculated by bioluminescence imaging on a Xenogen IVIS-200 Spectrum (PerkinElmer; Hopkinton, MA) at 24, 48, and 72 hours.

For assay [3], the system named is T cells stimulated with PMA and ionomycin. The conditions noted are these: PMA 50 ng/mL + ionomycin 1 μg/mL, 4 hours, TP-0903 10 to 30 nM.
Assay [4] relates to JNK, p38, GATA-3, T-bet, LCK. Nature of the assay: Western blot analysis of downstream signaling in CART19 cells. The settings on record: 10-30 nM TP-0903, 24 hours. For orientation: In western blotting, separated proteins are transferred to a membrane and probed.
Assay [5] concerns CART19 cells. Kind of assay: Cytokine analysis (38-multiplex) of CART19/JeKo-1 co-culture supernatant.
The mark [6] stands for this setting: CART19 + JeKo-1 in the presence of TP-0903.

Turning to `CN1CCN(Cc2ccc(Nc3ncc(Cl)c(Nc4ccccc4S(=O)(=O)N(C)C)n3)cc2)CC1` [TP-0903, Dubermatinib], in the assay on CART19 cells [1] (10 nM TP-0903, JeKo-1 at 1:5, 5 days), the “CD8+ CAR T cell proliferation” value is listed as “superior”. The CART19 cell expansion result in the assay on CART19 cells [1] (10 nM TP-0903, JeKo-1 co-culture, 5 days) is listed as “improved”. Moreover, in the assay on monocytes, the “IL-1 receptor α” value is given as “significant reductions”, the IL-1β result is reported as “significant reductions”, the IL-6 result is on record as “significant reductions” and the IL-17A result is given as “significant reductions”. The “Th2 cells among CART19 cells” value in the assay on CART19 cells [2] is “reduction”. For the same compound, in the assay on Axl, the “inhibition of Axl phosphorylation” value is on record as “potent inhibition”. Also, in the assay on M2-type macrophages, the “M2 polarization (CD206, CD163 on CD14+ cells)” value is listed as “prevents M2 polarization”. For the same compound, in the assay with JeKo-1, the “antitumor activity of monotherapy” value was “did not have any significant antitumor activity”. Besides, the “killing of tumor cells (direct anti-tumor activity)” value in the assay with CD19+ JeKo-1 cells is recorded as “direct anti-tumor activity”. Also, in [3], the IFN-γ production result is reported as “preserved” and the IL-2 production result is listed as “preserved”. Moreover, in [4], the “phosphorylation of GATA-3” value is “no changes”, the “phosphorylation of JNK” value is reported as “no changes”, the “phosphorylation of LCK” value is “no changes” and the “phosphorylation of T-bet” value is “no changes”. Besides, the “phosphorylation of p38” value in assay [4] is on record as “no changes”. Moreover, the “secreted IL-5” value with CART19 cells [5] (CART19 + JeKo-1, 3 days, in the presence of TP-0903) is “significantly downregulated”. Moreover, in the assay with CART19 cells [5] (setting [6]), the “secreted IL-8” value is “reduction”, the “secreted IP-10” value is “reduction” and the “secreted sCD40L” value is reported as “reduction”.

The record behind these values is patent US20260286396A1, “AXL KNOCK OUT CAR T CELLS AND METHODS FOR USE THEREOF” (priority 2023, published 2026).
